Data published in PubChem BioAssay AID1240 (Sanford-Burnham Center for Chemical Genomics, 2008).
Out of some 50,000 compounds screened, about 800 (1.6%) showed an effect of 50% or more. The list shows a part of the results.

These compounds were tested against Bcl-2-like protein 10 (Homo sapiens) (UniProt Q9HD36) (assay: Phenotype converters, Bcl-B/TR3 peptide binding displacement, primary biochemical FP (AID 1240;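 also: 0% = Bcl-B with tracer peptide and DMSO and 100% = tracer peptide lacking Bcl-B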)). Details: GST-Bcl-B / FITC-TR3 peptide fluorescence polarization; stronger effect = higher value; compound at 3.75 mg/L.
Chain of UniProt Q9HD36 (Q9HD36 whole entry, looked up): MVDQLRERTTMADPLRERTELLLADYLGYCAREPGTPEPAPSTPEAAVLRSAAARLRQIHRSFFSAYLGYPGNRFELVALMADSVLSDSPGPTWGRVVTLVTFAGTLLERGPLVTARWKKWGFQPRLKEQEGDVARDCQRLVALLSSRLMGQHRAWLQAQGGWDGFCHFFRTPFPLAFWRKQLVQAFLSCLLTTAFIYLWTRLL

Point of comparison: `CCOc1ccc(C(=O)Nc2ccc3oc(-c4ccccc4Br)nc3c2)cc1`, displacement 14%. Against it:
- CCCCOc1ccc(C(=O)O/N=C2/C(=O)N(C)c3ccccc32)cc1 — lower, 2.3%
- CCOC(=O)Oc1ccc2c(=O)c(Oc3ccc(C(C)(C)C)cc3)coc2c1 — lower, 11.9%
- Nc1cccc(C(=O)Nc2ccccc2C(=O)O)c1 — higher, 18.7%
- Cc1ccsc1/C=C(/C#N)c1nc(-c2ccc(-c3ccccc3)cc2)cs1 — lower, 3.1%
- O=C1C(=O)N(Cc2ccccc2)C(c2ccc([N+](=O)[O-])cc2)/C1=C(/O)c1ccccc1 (stereo not given) — lower, 13.8%
- FC(F)(F)c1ccc(/C=N/N2CCN(Cc3ccc(Cl)cc3)CC2)cc1 — lower, 10.1%
- COc1ccc(OC)c(-n2cnc(-c3ccc([N+](=O)[O-])cc3)c2)c1NCc1ccccc1 — lower, 0.1%
- CC1CCN(C(=O)c2cncc(Br)c2)CC1 — higher, 14.9%
- Cc1sc(NC(=O)c2cccc(Br)c2)nc1-c1ccccc1 — lower, 0.4%
- O=C(Nc1nnc(Cc2ccccc2)s1)c1ccco1 — lower, -0.6%
- CC(=O)Nc1cc2c(C)cc(=O)oc2cc1C — lower, 5%
- O=C(Nc1ccccc1)Nc1ccc(NC(=O)c2ccc(NC(=O)Nc3ccccc3)cc2)cc1 — lower, 5.7%
- C/C(=N/N=C(c1ccccc1)c1ccccc1)c1cccs1 — lower, 4.5%
- O=C(O)c1ccccc1C(=O)c1ccc2c3c(cccc13)CC2 — lower, 6.5%
- Cc1cc(C)c(OCCCCN2CCCCC2)c(C)c1 — lower, -13.7%
- COC(=O)c1cc(Cl)c(NC(=O)c2ccc(F)cc2)cc1OC — lower, -7.3%
- O=C(NN=C(C1CC1)C1CC1)c1cc2ccccc2cc1O — lower, -16.1%
- N/N=C(\c1ccccc1)C12CN3CN(CN(C3)C1)C2 — lower, 2.7%
- O=C1/C(=C/c2ccccc2OCc2ccc([N+](=O)[O-])cc2)SC(=S)N1Cc1ccccc1 — lower, 12.7%
- O=C(O)c1cc(NC(=O)c2cccc(Br)c2)cc(C(=O)O)c1 — lower, -6.4%
- Cc1[nH]n(-c2ccccc2)c(=O)c1/C=N/N1C(=O)c2ccccc2C1=O — lower, -31%
- O=C1CSC(=Nc2ccc(F)cc2)N1 — higher, 17.5%
- O=C(Nc1ccc(Cl)c(-c2nc3c(ccc4ccccc43)o2)c1)c1ccccc1[N+](=O)[O-] — lower, -28.3%
- Cc1ccc(NC(=S)NCCOc2cccc3ccccc23)c(C)c1 — lower, -15.4%
- COC(=O)c1cccc(N2C(=O)C=CC2=O)c1 — lower, 1%
- O=C(c1cccc(F)c1F)N1CCN(c2cc(N3CCCC3)c(F)cc2[N+](=O)[O-])CC1 — lower, -9%
- CCC(=O)NC(C)c1ccc(Br)cc1 (stereo not given) — lower, -0.4%
- Cc1cccc(OCC(=O)O/N=C(\N)c2cccc(C)c2)c1 — lower, -9.8%
- NS(=O)(=O)c1ccc(NC(=O)/C=C/c2ccccc2Cl)cc1 — lower, 7.1%
- Cc1ncc(C[n+]2csc(CCOC(=O)CC34CC5CC(CC(C)(C5)C3)C4)c2C)c(N)n1 — lower, 8.9%
- COc1ccc(C2CC(C(F)(F)F)n3nc(C(=O)NCCCN4CCOCC4)c(Cl)c3N2)cc1OC (stereo not given) — lower, 2.2%
- O=C(O)CCCCCN1C(=O)C(=O)/C(=C(\O)c2ccc(Br)cc2)C1c1ccccc1 (stereo not given) — lower, -20.6%
- O=C(Cc1ccc([N+](=O)[O-])cc1)Nc1ccccc1-c1ccccc1 — lower, 5.2%
- O=C1/C(=C/c2cccc(O)c2)SC(=S)N1c1ccc(O)cc1 — lower, 11.5%
- COc1ccc(C(=O)CSc2n[nH]c(-c3ccccc3)n2)cc1[N+](=O)[O-] — lower, -17.2%
- Cc1cc(NC(=O)c2ccncc2)no1 — lower, 0.4%
- COc1ccc(CNC(=O)CN(CCc2ccccc2)S(=O)(=O)c2ccc(OC)cc2)cc1 — lower, -23.7%
- CC(=O)Nc1ccccc1NC(=O)CCc1ccccc1 — lower, -4.1%
- CC(=O)N1c2ccccc2-c2c(ssc2=S)C1(C)C — lower, 9.4%
- NC(=O)/C(=C\c1ccc(Cl)cc1)NC(=O)c1ccco1 — lower, 3.2%
- CC(=O)Nc1ccccc1NC(=O)COc1ccccc1C — lower, 11.1%
- S=C1NCCOCCOCCOCCNC(=S)N2CCOCCOCCN1CCOCC2 — higher, 14.7%
- Brc1ccccc1CN1CCN(Cc2ccco2)CC1 — lower, 2.1%
- Cc1ccc(OCC(=O)N(C)c2ccccc2)c(C)c1 — lower, 3.3%
- Cc1ccc(OCC(=O)Nc2ccccc2O)c(C)c1 — lower, 11.1%
- CCc1ccc(NC(=O)c2ccc(Cl)cc2Cl)cc1 — lower, 0.3%
- NS(=O)(=O)c1ccc(NC(=S)Nc2ccc(F)cc2)cc1 — lower, -10.6%
- Clc1ccc(-c2ncc(-c3ccccc3)o2)cc1 — lower, 12.2%
- Cc1cccc(C)c1NC(=O)C(C)Oc1cccc(Cl)c1 (stereo not given) — lower, -11.8%
- Cc1ccc(-c2ccc(/C=N/N3C(=O)C4C(C3=O)C3C=CC4C34CC4)o2)c([N+](=O)[O-])c1 (stereo not given) — lower, 6.9%
- CCOC(=O)C(O)(CCC(O)(C(=O)OCC)C(=O)OCC)C(=O)OCC — lower, -0.4%
- CCN(CC)c1ccc(NC(=O)c2cc(I)ccc2Cl)cc1 — lower, 7.9%
- Cc1ccc(-c2n[nH]c(=S)n2-c2ccccc2C)cc1 — lower, 5.1%
- CCOC(=O)c1c(NC(=O)NN)sc2c1CCCC2 — higher, 37%
- O=C(Nc1ccc2nn(-c3ccc(Cl)cc3)nc2c1)c1ccccn1 — higher, 91%
- COC(=O)c1ccccc1NC(=O)c1cc(Br)ccc1OC — lower, 13%
- CCSc1nnc(NC(=O)c2ccc(Cl)cc2)s1 — lower, 2.2%
- O=C(COc1ccc2ccccc2c1)Nc1ccc(S(=O)(=O)N2CCc3ccccc32)cc1 — lower, -6.7%
- O=C(Nc1ccc(-c2nc3ccccc3[nH]2)cc1)c1ccc(F)cc1 — lower, -5.7%
- O=C1/C(=C/C=C/c2ccccc2)SC(=S)N1c1ccc(F)cc1 — lower, -5.8%
- COC(=O)C1=C(C)N=c2s/c(=C\c3ccccc3F)c(=O)n2C1/C=C/c1ccccc1 (stereo not given) — higher, 15.3%
- COc1c(O)ccc(/C=N/NC(=O)C(O)c2ccccc2)c1[N+](=O)[O-] (stereo not given) — lower, 9.9%
- CC(=O)Oc1ccc(N2C(=O)C3ON(c4ccccc4)C(c4ccc(F)cc4)C3C2=O)cc1 (stereo not given) — lower, 4.4%
- Cc1cc(C)c(OCCCCN2CCC(C)CC2)c(C)c1 — lower, -1.3%
- COc1cccc(OC)c1C(=O)Nc1ccc(Cl)c(C(N)=O)c1 — lower, 2.2%
- CNC(=O)c1c(-c2ccccc2)oc2ccc(O)cc12 — lower, 10.3%
- CCOC(=O)c1ccc(NC(=O)CN(c2cccc(Br)c2)S(=O)(=O)c2ccccc2)cc1 — higher, 44%
- COc1ccc(C(=O)N2CCN(Cc3ccccc3Cl)CC2)cc1 — lower, -10.4%
- O=C(O)CC(C(=O)O)c1c[nH]c2ccccc12 (stereo not given) — lower, 5.8%
- CCOC(=O)C1=C(C)N=c2s/c(=C\c3cccc([N+](=O)[O-])c3)c(=O)n2C1c1ccccc1F (stereo not given) — higher, 138%
- C=CCOCC(O)CS(=O)Cc1ccc(Cl)cc1 (stereo not given) — lower, -8%
- COc1ccc2ccccc2c1-c1cc(C(=O)N/N=C/c2ccc(C)cc2)[nH]n1 — lower, -12.5%
- FC(F)(F)COc1nc(OCC(F)(F)F)nc(N2CCN(c3ccccc3)CC2)n1 — lower, 11.9%
- Cc1cc(/C=C2/NC(=O)NC2=O)c(C)n1-c1ccc(F)cc1 — higher, 15%
- CCOC(=O)c1cnc2cc(-c3ccco3)[nH]n2c1=O — higher, 16.3%
- CCOC(=O)C1=C(C)N(c2ccc(OC)cc2)C(=O)/C1=C\c1ccc(O)c(OCC)c1 — lower, 1.1%
- CC(=O)Nc1ccccc1NC(=O)c1cccc([N+](=O)[O-])c1 — lower, -11.5%
- O=C(Cc1ccccc1)Nc1nc(-c2ccccc2)cs1 — lower, 2.1%
- CCOC(=O)C1=C(O)/C(=C/c2ccco2)SC1=Nc1cccc(Cl)c1 — lower, -0.6%
- O=C(Nc1cccc(NC(=O)c2cccc3ccccc23)c1)c1cccc(Cl)c1 — lower, 2%
- COc1ccc(NC(=O)c2ccc(OC)c(OC)c2)cc1OC — lower, -8.9%
- COc1cc(C=C2C(=O)NC(=S)NC2=O)cc(Cl)c1OCCOc1ccccc1C — lower, -4.5%
- COc1ccccc1N1CCN(S(=O)(=O)c2ccc3ccccc3c2)CC1 — lower, 0.5%
- COc1ccc(Cl)cc1C(=O)Nc1cc(C)cc(C)n1 — lower, 4.7%
- O=C(Nc1cccc(NS(=O)(=O)c2ccccc2)c1)c1ccccc1Cl — lower, -5.1%
- CC(=O)N1CC(c2ccccc2)CC1=O (stereo not given) — lower, 8.7%
- CCOC(=O)C1=C(O)/C(=C/c2ccc(O)c(OCC)c2)SC1=Nc1ccccc1 — lower, -47.6%
- O=C(CCc1ccccc1)Nc1cc(C(F)(F)F)ccc1Cl — lower, 11.6%
- CC(C)c1ccc(N2C(=O)NC(=O)/C(=C/c3cc4c(cc3Br)OCO4)C2=O)cc1 — lower, -11.1%
- CCCOc1ccc(/C=N/N2CCN(Cc3cccc4ccccc34)CC2)cc1 — lower, 7.9%
- CN(C)/C=C1\N=C(c2cccc(F)c2)OC1=O — lower, -4.4%
- COc1ccc(OC)c(NC(=O)CN(c2ccc(C(C)C)cc2)S(=O)(=O)c2ccccc2)c1 — lower, 1.7%
- O=[N+]([O-])c1cccc(Cl)c1C1NN=C(c2ccccc2)S1 (stereo not given) — lower, 7%
- CC1(C)Cc2nc(NC(=S)Nc3ccccc3)c(C(=O)O)cc2CO1 — lower, -4.3%
- Cc1ccc(S(=O)(=O)NCC(c2ccccc2)N2CCOCC2)cc1 (stereo not given) — lower, -3.8%
- CCOC(=O)Cn1c(=N)n(Cc2ccc(C)cc2)c2ccccc21 — lower, -5.2%
- COc1ccc(NC(=O)C(=O)NCCCO)cc1Cl — lower, 12.1%
- COc1ccc(/C=C2\C(=O)NC(=O)N(c3ccc(C)c(C)c3)C2=O)cc1Br — lower, -8.9%
- O=C(c1ccc(-c2ccccc2)cc1)N1CCN(C2CCCC2)CC1 — lower, -7.8%
- CCOC(=O)C1=C(C)N=c2s/c(=C\c3ccc(Cl)cc3)c(=O)n2C1c1ccc2c(c1)OCO2 (stereo not given) — higher, 121%
- CCCN1CCC(=NNC(=O)c2ccccc2O)CC1 — lower, 7.1%
- COc1ccc(OC)c(/C=N\NC(=O)COc2ccc(Cl)cc2Br)c1 — lower, 9.5%
- Cc1cc(NC(=O)c2ccc3ccccc3c2)ccc1NC(=O)c1ccccc1 — lower, -10.3%
- O=S(=O)(c1ccc2ccccc2c1)N1CCc2ccccc2C1 — lower, -1.3%
- CC1=CC(C)C2C(=O)N(Cc3ccc[n+](C)c3)C(=O)C2C1 (stereo not given) — lower, -14.6%
- COc1ccc(C(=O)N2CCN(c3ccccc3)CC2)cc1OC — lower, -5.3%
- NC(=O)c1ccccc1NC(=O)c1ccc2c(c1)OCO2 — lower, 5.1%
- CCN(CC)c1ccc(/C=C2\C(=O)NC(=O)N(c3cccc(C)c3)C2=O)c(OC)c1 — higher, 15.2%
- Cc1occc1C(=O)Nc1nc2ccc(S(C)(=O)=O)cc2s1 — lower, -1.3%
